B1: Caulobacter ParB omega fusion; a variant is named by its letters at X, in order, B8GW30 (parent)
chain: MESVVVGEPGMSEGRRGLGRGLSALLGEVDAAPAQAPGEQLGGSREAPIEILQRNPDQPRRTFREEDLEDLSNSIREKGVLQPILVRPSPDTAGEYQIVAGERAWRAAQRAGLKTVPIMVRELDDLAVLEIGIIENVQRADLNVLEEALSYKVLMEKFERTQENIAQTIGKSXSHVANXMRLLXLPDEVQSYLVSGELTAXHARAIAAAADPVALAKQIIEGGLSVRETEALARKAPNLSAGKSKGGRPPRVKDTDTQALESDLSSVLGLDVSIDHRGSTGTLTITYATLEQLDDLCNRLTRGI

Whole data set: some 81,000 sequences, median “one-hybrid fitness for binding NBS DNA” near -0.1, cut for the highest 2% near 0.36. The list shows a part of the results. Bounds are passed on as bounds.

The assay covers variants of B1. Briefly: one-hybrid fitness for binding NBS DNA (the Noc-binding site; scaled: cognate 1, non-cognate 0); higher = stronger binding. Particulars: with NBS DNA site. The method in brief: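 Values were rescaled so that cognate is 1 and non-cognate is 0. Each is a fitness, the log change in a variant's read ratio to wild type from Illumina reads of plasmids before and after selection, with three replicate libraries pooled and variants under 10 reads dropped. Selection of the Caulobacter ParB libraries, four specificity codons randomised, used E. coli USO with a HIS3 reporter, site 19 bp from the promoter, on M9-minus-histidine with 0.1 mM IPTG and 5 mM 3-AT for 48 hours at 37°C.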
As for TELP, the “one-hybrid fitness for binding NBS DNA” value was ≤ 0.2. On to EINT, for which the “one-hybrid fitness for binding NBS DNA” value is ≤ 0.2. For QPKM, the “one-hybrid fitness for binding NBS DNA” value is ≤ 0.2. For TSLC, the “one-hybrid fitness for binding NBS DNA” value was ≤ 0.2. In the case of RHYM, the “one-hybrid fitness for binding NBS DNA” value is ≤ 0.2.

For YLYT, the “one-hybrid fitness for binding NBS DNA” value was ≤ 0.2. For RMQD, the “one-hybrid fitness for binding NBS DNA” value was ≤ 0.2. With KIRT, the “one-hybrid fitness for binding NBS DNA” value was ≤ 0.2. For PRCR, the “one-hybrid fitness for binding NBS DNA” value is ≤ 0.2. Turning to MNTM, the “one-hybrid fitness for binding NBS DNA” value is ≤ 0.2. Consider CTDF, for which the “one-hybrid fitness for binding NBS DNA” value is ≤ 0.2. Turning to YSEV, the “one-hybrid fitness for binding NBS DNA” value is ≤ 0.2. As to RYHY, the “one-hybrid fitness for binding NBS DNA” value was ≤ 0.2. Take PIKV: the “one-hybrid fitness for binding NBS DNA” value is ≤ 0.2. RADD: the “one-hybrid fitness for binding NBS DNA” value was ≤ 0.2.

Regarding KSIH, the “one-hybrid fitness for binding NBS DNA” value was ≤ 0.2. As for ARQV, the “one-hybrid fitness for binding NBS DNA” value is ≤ 0.2. For RNCS the value was ≤ 0.2; for LQWG, ≤ 0.2. For KPKS, the “one-hybrid fitness for binding NBS DNA” value is ≤ 0.2.

SPPQ: the “one-hybrid fitness for binding NBS DNA” value was ≤ 0.2.

PSAH: the “one-hybrid fitness for binding NBS DNA” value is ≤ 0.2. With QWDT, the “one-hybrid fitness for binding NBS DNA” value was ≤ 0.2. For CNKV the value was ≤ 0.2.

With SGRC, the “one-hybrid fitness for binding NBS DNA” value is ≤ 0.2.

Consider PSET, for which the “one-hybrid fitness for binding NBS DNA” value was ≤ 0.2. For NEDC the value was ≤ 0.2; for AQEG, ≤ 0.2.

On to QGIY, for which the “one-hybrid fitness for binding NBS DNA” value was ≤ 0.2. The same measure for MQNE: ≤ 0.2; for RRDS: 0.58. ETSV: the “one-hybrid fitness for binding NBS DNA” value is ≤ 0.2. Regarding KYCG, the “one-hybrid fitness for binding NBS DNA” value was ≤ 0.2. In the case of PLII, the “one-hybrid fitness for binding NBS DNA” value is ≤ 0.2. For APAA the value was ≤ 0.2; for KREV, ≤ 0.2.

In the case of IDNF, the “one-hybrid fitness for binding NBS DNA” value is ≤ 0.2. With YCHR, the “one-hybrid fitness for binding NBS DNA” value is ≤ 0.2.

TTSN: the “one-hybrid fitness for binding NBS DNA” value was ≤ 0.2. The same measure for NWSR: ≤ 0.2; for PLCD: ≤ 0.2; for PPLK: ≤ 0.2. In the case of SFGC, the “one-hybrid fitness for binding NBS DNA” value is ≤ 0.2.

Take SCSC: the “one-hybrid fitness for binding NBS DNA” value was ≤ 0.2.

As to PSFF, the “one-hybrid fitness for binding NBS DNA” value was ≤ 0.2. As to HMTN, the “one-hybrid fitness for binding NBS DNA” value was ≤ 0.2. For the variant QKVA, the “one-hybrid fitness for binding NBS DNA” value was ≤ 0.2. In the case of KVGM, the “one-hybrid fitness for binding NBS DNA” value was ≤ 0.2. For NFDN the value was ≤ 0.2; for WACP, ≤ 0.2. For the variant RIYH, the “one-hybrid fitness for binding NBS DNA” value was ≤ 0.2. For the variant ELPC, the “one-hybrid fitness for binding NBS DNA” value was ≤ 0.2.

As for ANPL, the “one-hybrid fitness for binding NBS DNA” value was ≤ 0.2.

For the variant MALM, the “one-hybrid fitness for binding NBS DNA” value is ≤ 0.2. As for LPNY, the “one-hybrid fitness for binding NBS DNA” value is ≤ 0.2. On to HYRN, for which the “one-hybrid fitness for binding NBS DNA” value is ≤ 0.2. On to MMPS, for which the “one-hybrid fitness for binding NBS DNA” value was ≤ 0.2.

Turning to GSLR, the “one-hybrid fitness for binding NBS DNA” value is ≤ 0.2.

As for IQLW, the “one-hybrid fitness for binding NBS DNA” value was ≤ 0.2.

Regarding TYHY, the “one-hybrid fitness for binding NBS DNA” value is ≤ 0.2.

Take RTEK: the “one-hybrid fitness for binding NBS DNA” value was ≤ 0.2.

Regarding RFAF, the “one-hybrid fitness for binding NBS DNA” value was ≤ 0.2. In the case of VISC, the “one-hybrid fitness for binding NBS DNA” value is ≤ 0.2. Regarding IKGT, the “one-hybrid fitness for binding NBS DNA” value was ≤ 0.2. As to TIHA, the “one-hybrid fitness for binding NBS DNA” value is ≤ 0.2. For GVLF the value was ≤ 0.2; for EEAS, ≤ 0.2; for LAWR, ≤ 0.2.

Take DPER: the “one-hybrid fitness for binding NBS DNA” value was ≤ 0.2. The same measure for VGRS: ≤ 0.2; for RDTE: ≤ 0.2. Turning to VHCW, the “one-hybrid fitness for binding NBS DNA” value was ≤ 0.2. In the case of TTGW, the “one-hybrid fitness for binding NBS DNA” value is ≤ 0.2. Regarding QVGI, the “one-hybrid fitness for binding NBS DNA” value is ≤ 0.2. For ADDY, the “one-hybrid fitness for binding NBS DNA” value was ≤ 0.2. Turning to RKNK, the “one-hybrid fitness for binding NBS DNA” value is ≤ 0.2. As for IVTV, the “one-hybrid fitness for binding NBS DNA” value is ≤ 0.2. For KPPR, the “one-hybrid fitness for binding NBS DNA” value is ≤ 0.2. With NDQM, the “one-hybrid fitness for binding NBS DNA” value is ≤ 0.2. For MSLQ the value was ≤ 0.2. Take IKAG: the “one-hybrid fitness for binding NBS DNA” value is ≤ 0.2. Regarding NVHC, the “one-hybrid fitness for binding NBS DNA” value was ≤ 0.2. The same measure for LKLM: ≤ 0.2; for FMEL: ≤ 0.2. As for QYFT, the “one-hybrid fitness for binding NBS DNA” value worked out at 0.335.

For MAHK, the “one-hybrid fitness for binding NBS DNA” value was ≤ 0.2.

Turning to SKSM, the “one-hybrid fitness for binding NBS DNA” value is ≤ 0.2. Take KIRE: the “one-hybrid fitness for binding NBS DNA” value was ≤ 0.2. Take SHRI: the “one-hybrid fitness for binding NBS DNA” value was ≤ 0.2. MLLT: the “one-hybrid fitness for binding NBS DNA” value is ≤ 0.2.

For HEAY, the “one-hybrid fitness for binding NBS DNA” value is ≤ 0.2. GVHD: the “one-hybrid fitness for binding NBS DNA” value was ≤ 0.2. With INKE, the “one-hybrid fitness for binding NBS DNA” value is ≤ 0.2. THMI: the “one-hybrid fitness for binding NBS DNA” value was ≤ 0.2. Consider CRLW, for which the “one-hybrid fitness for binding NBS DNA” value is ≤ 0.2. For RDDS the value was ≤ 0.2. For NPRL the value was ≤ 0.2. The same measure for EVSS: ≤ 0.2; for NTIC: ≤ 0.2. On to NLHR, for which the “one-hybrid fitness for binding NBS DNA” value was ≤ 0.2. With NPDE, the “one-hybrid fitness for binding NBS DNA” value was ≤ 0.2. On to HHSN, for which the “one-hybrid fitness for binding NBS DNA” value is ≤ 0.2. As to KKKW, the “one-hybrid fitness for binding NBS DNA” value was ≤ 0.2.

On to ERKS, for which the “one-hybrid fitness for binding NBS DNA” value was ≤ 0.2. Regarding CHET, the “one-hybrid fitness for binding NBS DNA” value is ≤ 0.2. As to GPRY, the “one-hybrid fitness for binding NBS DNA” value is ≤ 0.2.

Turning to SEPE, the “one-hybrid fitness for binding NBS DNA” value was ≤ 0.2. On to LTLN, for which the “one-hybrid fitness for binding NBS DNA” value was ≤ 0.2.

Consider SFSP, for which the “one-hybrid fitness for binding NBS DNA” value was ≤ 0.2. As for AVLC, the “one-hybrid fitness for binding NBS DNA” value is ≤ 0.2.

Turning to KRQT, the “one-hybrid fitness for binding NBS DNA” value amounted to 0.513.

As for YLPQ, the “one-hybrid fitness for binding NBS DNA” value was ≤ 0.2. Consider RCTL, for which the “one-hybrid fitness for binding NBS DNA” value was ≤ 0.2. Consider CWNE, for which the “one-hybrid fitness for binding NBS DNA” value was ≤ 0.2. As to EIAH, the “one-hybrid fitness for binding NBS DNA” value was ≤ 0.2. For PKVG the value was ≤ 0.2; for GKHY, ≤ 0.2; for SYRW, ≤ 0.2. For RNKF, the “one-hybrid fitness for binding NBS DNA” value is ≤ 0.2. The same measure for YMWS: ≤ 0.2; for MCPA: ≤ 0.2. The same measure for PSVR: ≤ 0.2. As to CVSN, the “one-hybrid fitness for binding NBS DNA” value was ≤ 0.2. On to KRPL, for which the “one-hybrid fitness for binding NBS DNA” value is ≤ 0.2.

Take DCPW: the “one-hybrid fitness for binding NBS DNA” value is ≤ 0.2. In the case of YAIR, the “one-hybrid fitness for binding NBS DNA” value was ≤ 0.2. As to NDHF, the “one-hybrid fitness for binding NBS DNA” value was ≤ 0.2. As to IVRT, the “one-hybrid fitness for binding NBS DNA” value was ≤ 0.2. In the case of WDLG, the “one-hybrid fitness for binding NBS DNA” value is ≤ 0.2.

Turning to GQYA, the “one-hybrid fitness for binding NBS DNA” value was ≤ 0.2. IKIG: the “one-hybrid fitness for binding NBS DNA” value is ≤ 0.2. With KVHG, the “one-hybrid fitness for binding NBS DNA” value was ≤ 0.2.

As for QSPR, the “one-hybrid fitness for binding NBS DNA” value was determined as 0.27. In the case of ATRL, the “one-hybrid fitness for binding NBS DNA” value was ≤ 0.2. Take THHK: the “one-hybrid fitness for binding NBS DNA” value is ≤ 0.2. For RCCD, the “one-hybrid fitness for binding NBS DNA” value is ≤ 0.2. Take REKS: the “one-hybrid fitness for binding NBS DNA” value is ≤ 0.2. Consider CVRA, for which the “one-hybrid fitness for binding NBS DNA” value is ≤ 0.2. For TKMG, the “one-hybrid fitness for binding NBS DNA” value was ≤ 0.2. With SRKY, the “one-hybrid fitness for binding NBS DNA” value is ≤ 0.2. The same measure for CVDQ: ≤ 0.2. The same measure for KDTG: ≤ 0.2.

With QYQT, the “one-hybrid fitness for binding NBS DNA” value stood at 0.446. As for QYGC, the “one-hybrid fitness for binding NBS DNA” value was ≤ 0.2. The same measure for SSCF: ≤ 0.2. In the case of ISKC, the “one-hybrid fitness for binding NBS DNA” value was ≤ 0.2. Consider PGKH, for which the “one-hybrid fitness for binding NBS DNA” value was ≤ 0.2.

On to LRLS, for which the “one-hybrid fitness for binding NBS DNA” value was ≤ 0.2. As to SKCT, the “one-hybrid fitness for binding NBS DNA” value is ≤ 0.2. As to ASKA, the “one-hybrid fitness for binding NBS DNA” value was ≤ 0.2. Take IQPF: the “one-hybrid fitness for binding NBS DNA” value is ≤ 0.2. With AWSD, the “one-hybrid fitness for binding NBS DNA” value was ≤ 0.2. As for NNDR, the “one-hybrid fitness for binding NBS DNA” value was ≤ 0.2.

(Values after a collection of fitness landscapes (doi:10.1016/j.celrep.2020.107928).)
